The supplement of paper PMC3724861
The list shows a part of the results.

What follows are sequences tested on T1, Caupolican (Caup) homeodomain DNA-binding domain (assay: PBM E-score (8-mer, recovered from the published 9-mer minima) (E-score (dimensionless, -0.5 to 0.5)); Drosophila protein; higher = stronger relative binding preference, active = 0.31 or more).
T1 sequence: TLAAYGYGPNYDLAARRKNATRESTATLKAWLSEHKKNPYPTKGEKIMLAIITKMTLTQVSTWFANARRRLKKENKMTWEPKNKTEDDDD
How it was run: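 Caup's homeodomain DNA-binding domain (residues 214-303) was produced by in vitro transcription and translation and applied at 100 nM to custom-designed protein binding microarrays. Each value is an enrichment score giving relative binding preference for a short DNA word; higher means stronger. Published 9-mer scores were the minimum of their two constituent 8-mer scores, and the 8-mer values were recovered from those minima. A cutoff of 0.31 marks candidate binding sequences.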

PBM E-score, ≥ 0.0154:
ACCCGACT

PBM E-score, ≥ -0.041:
ACGGCCTA

PBM E-score, inactive:
CCCTAGAC -0.148
AGTCCCTG -0.0879
AATGTAGG 0.116
CGCTGTTC 0.0888
CTGTTTGA 0.188
GACTTCGC -0.121
AGCTGTGG -0.0855
CCTAAACG -0.104
GCTCCCTA -0.203
GCTCGGAA -0.114
GTAAAAAC 0.232
GCGCGAAA -0.0661
ACCGAACG -0.0785
AGGCTACG -0.15
AGTTTTAA 0.0261
CCTGTGGC -0.185
AAGCCTGG -0.169
ATGGATCA 0.0862
AACAGGCT 0.114
CACAAGAC 0.0913
CATATCCA 0.0717
CTGTCCGA 0.0437
CAAATCCC -0.163
TTGGCCAA -0.162
AGGCCGAC -0.193
AGCACAGC -0.0135
AAGAGTAT 0.0151
TCGCTAGA -0.0921
AAGGTTCA -0.0326
TGGCTTAA -0.00623
CAGAACAC 0.215
TAACTCTA -0.0432
GCGCTAGA -0.0513
AGCACTGC -0.152
AAGTCAGC 0.0195
AATTTCGG -0.109
ACTGTCCT 0.0573
AAATTTTG 0.0517
AATACCAC 0.106
ATTGCCAG -0.0611
ATAGTACC 0.134
GCATAAGA 0.00689
CTCGGCTA -0.0955
CTCTGGAC -0.0261
ATTTGGCG -0.0922
AGACTCGA 0.00039
GGTACCAC 0.0349
ATGCGGAC -0.0523
CGTCAATA -0.0207
ACAGTGAC 0.0286
CATCGGCG -0.0491
TTCGCCAA -0.129
CTGGTACC 0.0519
GCTTCTCC -0.21
ATAGCGCG -0.0022
ACTCTGCG -0.03
CCGCCACC -0.196
ACACTCTG 0.101
GTGCACAC 0.016
CAACAAAC 0.176
TAGCCCAA -0.0852
GAACTATC -0.0241
CTAATCCA -0.003
AGCAAGAT 0.097
AACGGGTC -0.187
CTCTTGAC 0.0391
CTCCCTTC -0.184
GACGCGAC -0.084
GTTTTGTA 0.197
GCGAATCC -0.124
AAGCCGAG -0.218
ACGAGAGG -0.0983
AATACAGA 0.18
GGCTGACA 0.0801
CATTCGGC -0.0463
TCTATTCA 0.136
AGCGGTCA -0.113
AGATGGCA 0.0111
ACGATTAA 0.0321
ACCTGAGC -0.0467
AAAGGTGG -0.0535
CGGTGCCA -0.31
CTGCGCGC -0.182
GTATTACA 0.288
AACTATCA 0.108
AAAGCCCG -0.156
TACCTGAA 0.157
ACAGACCC -0.0272
AGTGGATG 0.0539
AATTACCG 0.0136
AACATTCG 0.152
GTTCAGAA 0.0829
AATCATAG 0.129
ATATTGAA 0.11
CAAACGAG 0.111
CAACAGCA 0.0674
CAGCGGAG -0.162
ACCTTCGC -0.126
CACGAGTC 0.00034
CTCTAATC -0.00615
GACCGGAC -0.106
AGCTGCGA -0.146
GCCATTCA -0.111
GCTGATGA 0.0175
ATTCTTTG 0.0835
ATTAAGGA -0.0472

PBM E-score, active:
CGTACATA 0.336
AACAAGAA 0.321

PBM E-score, ≥ -0.0683:
TCCGCGCA

PBM E-score, ≥ 0.121:
TACTTCTA
